Out of some 340,000 compounds screened, about 6,900 (2%) were called active. No stated cut-off is given here; in the data, active means inhibition above about 30%; inactive means below that, where a call was filed. The entries are a selection whose mix differs from that of the whole data set. The source gives no active or inactive call for entries shown without one.
Each molecule was assayed against D(2) dopamine receptor (Homo sapiens) (UniProt P14416) (assay: HTS Assay for Allosteric Antagonists of the Human D2 Dopamine Receptor: Primary Screen for Antagonists). Conditions: HEK293 TREx D2 cells, calcium flux, dopamine EC80; at 10 µM; stronger effect = higher value.
Chain of UniProt P14416 (P14416 whole entry, looked up): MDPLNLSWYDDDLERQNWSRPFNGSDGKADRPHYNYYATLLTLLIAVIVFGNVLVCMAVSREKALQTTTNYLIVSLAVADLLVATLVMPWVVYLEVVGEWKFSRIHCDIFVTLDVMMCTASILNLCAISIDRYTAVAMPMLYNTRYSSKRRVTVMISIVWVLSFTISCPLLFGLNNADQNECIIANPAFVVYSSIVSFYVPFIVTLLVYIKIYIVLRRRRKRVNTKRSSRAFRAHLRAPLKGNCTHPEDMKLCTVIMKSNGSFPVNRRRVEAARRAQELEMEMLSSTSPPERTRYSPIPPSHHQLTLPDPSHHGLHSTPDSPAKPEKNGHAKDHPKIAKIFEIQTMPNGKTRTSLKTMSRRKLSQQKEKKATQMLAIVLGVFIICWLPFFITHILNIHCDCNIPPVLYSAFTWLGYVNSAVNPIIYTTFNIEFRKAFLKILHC
In short: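 Compounds are added to dye-loaded, induced HEK293 T-REx cells coupled to calcium release via D2; after a 3 min kinetic read an EC80 dopamine stimulus is given and fluorescence is recorded for 3 more min.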
Further: 0% is about no effect.

Row | SMILES | inhibition
1 | CCOC(=O)C1CCN(C(c2ccc(C)cc2)c2sc3nc(-c4ccco4)nn3c2O)CC1 (stereo not given) | 19.2%
2 | Cc1cccc(Nc2cc(C)nc3nc(-c4ccccc4)nn23)c1 | 3.96%
3 | COc1cccc(CC(=O)OC(C)C(=O)NCc2ccc3c(c2)OCO3)c1 (stereo not given) | active: 55.1%
4 | CC1=C(C(=O)Nc2cccc(F)c2)C2(CCCCC2)OC1=O | 12.9%
5 | Cc1ccc(/C=C2\SC(=S)N(/N=C/c3cc([N+](=O)[O-])ccc3O)C2=O)o1 | active: 31.6%
6 | O=C(CCC1N=C2c3ccccc3N=C(SCc3ccc(F)cc3)N2C1=O)N1CCN(c2ccccc2)CC1 (stereo not given) | -7.24%
7 | Clc1ccc(-c2nc3ncccn3c2Nc2ccc3c(c2)OCCO3)cc1 | 6.82%
8 | CCOC(=O)c1ccc(N2C(=O)c3n[nH]c(-c4cccs4)c3C2c2cccc(O)c2)cc1 (stereo not given) | 1.97%
9 | COc1ccc(N2CCN(C(=O)CCCCn3c(=O)[nH]c4ccsc4c3=O)CC2)cc1 | -9.66%
10 | COc1ccc(CNC(=O)c2cc(-c3ccc(OC)c(OC)c3)nc3n[nH]c(-c4ccc(C)cc4)c23)cc1 | 12.1%
11 | CC(=O)c1ccc(NC(=O)CSc2nnc3c(n2)[nH]c2ccccc23)cc1 | 2.3%
12 | O=C(CSc1ccc2nc(-c3ccccc3)cn2n1)Nc1ccccc1 | -1.8%
13 | O=C(Nc1ccc(F)cc1F)c1ccc(-n2cnc3cccnc32)cc1 | 4.18%
14 | c1ccc(-c2csc(=Nc3cccnc3)n2CC2CCCO2)cc1 (stereo not given) | active: 30.3%
15 | CC(C)=C(NC(=O)c1ccccc1)C(=O)NC(Cc1ccccc1)C(=O)O (stereo not given) | active: 38.9%
16 | CCOCCCNC(=O)CN1C(=O)COc2ccc(S(=O)(=O)N3CCOCC3)cc21 | -15.6%
17 | COc1ccc(-c2cc(C(F)(F)F)nc(SCCC(=O)Nc3ccc(F)cc3F)n2)cc1 | -5.52%
18 | COc1ccc(CNC(=O)c2cc3cccc4c3n2CC(C)S4)cc1 (stereo not given) | 8.32%
19 | CCOc1ccc(NC(=O)CSc2nc3ccccc3nc2N2CCOCC2)cc1 | 14.8%
20 | O=c1c(N2CCN(c3ccc(F)cc3)CC2)csc2ccc(F)cc12 | -0.247%
21 | COc1ccc(S(=O)(=O)NC(C)(C)CO)cc1-c1nnc2c3ccccc3c(C)nn12 | -2.15%
22 | CC(C)CC(=O)Nc1cccc(-c2cn3cccnc3n2)c1 | -12.8%
23 | CCCn1c(=O)c2sccc2n2c(CCCC(=O)N3CCN(c4ccc(OC)cc4)CC3)nnc12 | -12.8%
24 | CC1CCN(S(=O)(=O)c2ccc3nc(Nc4cccc(F)c4)ccc3c2)CC1 | 3.34%

Row | SMILES | inhibition
25 | Cc1nn(-c2cccc(Cl)c2)c2nc(-c3cccnc3)cc(C(F)(F)F)c12 | -8.4%
26 | CC(C)CNC(=O)C(=O)Nc1c2c(nn1-c1ccc(Cl)cc1)CSC2 | 13.1%
27 | CC(=O)c1ccc(NC(=O)CSc2nccn2C2CCCC2)cc1 | 4.26%
28 | Cc1cccc(N2CCN(c3ccc4cc(S(=O)(=O)N5CCC(C)CC5)ccc4n3)CC2C)c1 (stereo not given) | 2.74%
29 | CCC(Sc1nc2nccnc2c(=O)n1Cc1ccc(Cl)cc1)C(=O)NC1CCCCC1 (stereo not given) | 8.28%
30 | COc1cccc(CNc2sc3c(c2C(=O)Nc2ccc(OC)cc2OC)CCC3)c1 | -19%
31 | Cc1ccc(NC(=O)CCCn2c(=O)c3cccn3c3cccnc32)c(C)c1 | -4.54%
32 | COc1ccc(-n2ccn3c(CC(C)(C)CC(=O)O)nnc3c2=O)cc1 | -12.6%
33 | COc1ccccc1N1CCN(CC(=O)Nc2cc(F)ccc2C)CC1 | active: 85.7%
34 | O=c1c(-c2cc(-c3ccccc3)nc3c2COc2ccc(Cl)cc2-3)coc2ccccc12 | -8.41%
35 | Cc1ccc(-c2cnc(C3CC3)o2)cc1S(=O)(=O)Nc1ccc(F)cc1Cl | -7.03%
36 | CCOc1ccc(NC(=O)c2cnn3c2NC(C)=C(C(=O)Nc2ccc(Cl)cc2)C3c2ccc(OC)c(OC)c2)cc1 (stereo not given) | 11.3%
37 | COc1ccc(C)cc1NC1(c2ccccc2)C(=O)c2ccccc2C1=O | -12.2%
38 | O=C(Nc1ccc(NC(=O)C2CC2)cn1)c1ccccc1 | active: 35.9%
39 | COc1ccc(OC)c(N(C)S(=O)(=O)c2ccc3c(c2)NC(=O)CC(=O)N3)c1 | -10.4%
40 | COc1ccc2nc(N3CCN(C(=O)CS(=O)(=O)c4ccc(C)cc4)CC3)sc2c1 | -13.9%
41 | COc1cccc(NC(=O)c2oc3ccccc3c2NC(=O)c2ccc(OC(C)C)cc2)c1 | -9.15%
42 | COc1ccc2c(CNCCc3ccco3)c(C(=O)O)n(Cc3ccc(F)cc3)c2c1 | -15%
43 | CCOC(=O)c1ccc(N2C(=O)c3[nH]nc(-c4ccccc4)c3C2c2ccc(C(C)C)cc2)cc1 (stereo not given) | 7.4%
44 | CCn1cc(C(=O)NCc2ccc(Cl)cc2)c(=O)c2cc(S(=O)(=O)N3CCc4ccccc4C3)ccc21 | 3.75%
45 | CC(=O)Nc1nonc1-c1nnc(SCC(=O)Nc2c(C)cccc2C)n1-c1ccccc1 | 8.09%
46 | CC(C)c1ccc(NC(=O)C(Cc2ccccc2)n2cccc2)cc1 (stereo not given) | -13.9%
47 | Cc1ccc2c(CC(=O)Nc3c(C(=O)c4ccc(F)cc4)oc4ccccc34)coc2c1C | -19.2%
48 | Cc1ccc(C)c(S(=O)(=O)c2cn(Cc3ccccc3)c3cc(N4CCCC4)c(F)cc3c2=O)c1 | -11.1%

Row | SMILES | inhibition
49 | CCOc1ccc(NC(=O)Cn2c(=O)n(CC(=O)NCCc3ccccc3)c(=O)c3sccc32)cc1 | 2.07%
50 | COC(=O)c1cc(CN2CCN(c3ccccc3C)CC2)ccc1O | active: 57.9%
51 | CC(=O)N1CCCc2cc(S(=O)(=O)Nc3ccc(OC(F)(F)F)cc3)ccc21 | -19.1%
52 | Cc1cccc(C)c1NC(=O)c1cc(S(=O)(=O)N2CCCc3ccccc32)ccc1F | -26%
53 | COc1cccc(C(=O)NCCc2sc(-c3cccc(C)c3)nc2C)c1 | 10.7%
54 | CCOC(=O)c1ccc(NC(=O)c2sc3nc4n(c(=O)c3c2C)CCC4)cc1 | 10.6%
55 | CCN1C(C(=O)c2ccccc2)=C(NC(=O)c2ccc(Cl)cc2)c2ccccc2S1(=O)=O | -6.8%
56 | CCN1C(=O)[C@H]2[C@@H](c3ccc(-c4ccc(C(C)=O)cc4)c(OC)c3)N[C@@](Cc3ccccc3)(C(=O)OC)[C@H]2C1=O | active: 32.1%
57 | COc1cc(Cl)c(C)cc1NC(=O)CCn1cnc2onc(-c3ccc(F)cc3)c2c1=O | -1.63%
58 | CC(CNC(=O)Cn1c(-c2cccs2)cc2cc(Cl)ccc21)c1ccccc1 (stereo not given) | -1.95%
59 | COCC(C)NS(=O)(=O)c1ccc(N2CCCCS2(=O)=O)cc1 (stereo not given) | 3.47%
60 | CC1=C(C(=O)Nc2ccc(C)cc2C)C(c2cccs2)n2nc(SCc3ccc(Cl)cc3)nc2N1 (stereo not given) | 0.666%
61 | CC(=O)c1ccc(NC(=O)CC2Sc3ccccc3NC2=O)cc1 (stereo not given) | -15.3%
62 | COc1ccc(-c2csc3ncnc(Nc4cccc(F)c4)c23)cc1 | -6.09%
63 | Cc1nc2nc(NC(=O)C(C)C)[nH]n2c(=O)c1Cc1ccccc1 | 7.19%
64 | Cc1ccc(NC(=O)C2CCN(C(=O)c3cnn(-c4ccccc4)c3-n3cccc3)CC2)cc1Cl | 5.5%
65 | Cc1ccc(Nc2nc(C(N)=O)c(NC(=O)c3ccccc3Br)s2)cc1 | 6.61%
66 | CCCN(CCC)c1cc(C)nc2nc(-c3ccc(Cl)cc3)nn12 | -13.1%
67 | Cc1ccc(C(=O)CSc2nc(-c3ccccc3)nc3c2CCCC3)cc1C | 8.25%
68 | COC(=O)c1ccccc1NC(=O)N1CCN(C/C=C/c2ccccc2)CC1 | active: 35.2%
69 | CCc1ccc(NCc2cc3cc(OC)c(OC)cc3n(CC(=O)Nc3ccc(F)cc3)c2=O)cc1 | -16.6%
70 | Cc1cccc(NC(=O)CC2C(=O)OCCN2Cc2ccccc2)c1 (stereo not given) | -3.48%
71 | CC1=C(c2ccc(F)cc2)S(=O)(=O)NC1=NCc1ccccc1Cl | 4.23%
72 | CC(C)(C)C(=O)Nc1ccc2nc(SCc3ccccc3)sc2c1 | 0.707%

Row | SMILES | inhibition
73 | O=C(c1ccco1)N(Cc1ccccc1)Cc1ccccn1 | active: 56.6%
74 | COc1cccc(CNC(=O)CCn2c(=O)c3cccn3c3cccnc32)c1 | 10.8%
75 | Cc1ccccc1C(=O)NC(=O)Nc1ccc(-n2nc(C(F)(F)F)cc2C(F)(F)F)cc1 | 1.5%
76 | COc1ccc2cc(CNc3ccccc3)c(=O)n(CC(=O)Nc3ccc(C(C)=O)cc3)c2c1 | 1.46%
77 | COc1ccc(-c2cn3nc(N4CCCC(C(=O)NCCCOC(C)C)C4)sc3n2)cc1 (stereo not given) | -7.49%
78 | CCC(=O)N1CCc2cc(S(=O)(=O)NC(Cc3ccccc3)C(=O)NCc3cccc(OC)c3)ccc21 (stereo not given) | 3.71%
79 | Cc1ccc(Cl)cc1NC(=O)C(NS(=O)(=O)c1ccc2c(c1)CCC(=O)N2)c1ccccc1 (stereo not given) | -9.69%
80 | Cc1ccc2c(c1)c1c(c(=O)n(-c3ccccc3C)c(=O)n1Cc1cccc(F)c1)n2C | -3.82%
81 | O=C(CCn1c(=O)sc2ccccc21)NCCC1=CCCCC1 | active: 37.5%
82 | CC1=NN(c2cccc(F)c2)C(=O)/C1=C/c1ccc(N(C)C)cc1 | active: 31.6%
83 | COc1ccccc1N1CCN(C(=O)CSc2nc(C)cc(=O)[nH]2)CC1 | 23%
84 | O=C(NCc1cccnc1)c1ccc(-c2cccc(Cl)c2Cl)o1 | active: 59.1%
85 | CC(C)Nc1cc(N2CCN(C3CCCCC3)CC2)c2noc3c2c1C(=O)c1ccccc1-3 | -2.47%
86 | CCOc1ccc(CNC(=O)C(C)n2ncn3cccc3c2=O)cc1 (stereo not given) | 20%
87 | O=C(c1ccc(Br)cc1)N1CCC(c2nc3ccccc3s2)CC1 | -2.02%
88 | CCOc1ccccc1CNC(=O)C1=C(C)C(=O)OC12CCN(C(C)=O)CC2 | 4.31%
89 | O=C(N/N=C/c1ccc(N2CCCC2)c([N+](=O)[O-])c1)c1cccnc1 | active: 40.6%
90 | COc1ccc(C(=O)Cn2c(=O)n3nc(CCn4nc(C)cc4C)nc3c3cc(OC)c(OC)cc32)cc1 | -8.72%
91 | Cc1ccc(S(=O)(=O)N2CCOCC2)cc1NC(=O)CNCc1ccccn1 | active: 32.7%
92 | OC(COc1cc(Cl)c(Cl)cc1Cl)CN1CCN(c2ncccn2)CC1 (stereo not given) | active: 36.9%
93 | COc1ccc(S(=O)(=O)Nc2c(C)n(C)n(-c3ccccc3)c2=O)cc1Br | -1.55%
94 | CN(CC(=O)Nc1cccc(S(=O)(=O)N2CCCCC2)c1)Cc1ccc(F)cc1 | active: 32%
95 | CC(=O)c1cccc(NC(=O)C2CCN(c3nnc(-n4cccc4)s3)CC2)c1 | -3.51%

— PubChem BioAssay AID485344 (National Center for Advancing Translational Sciences (NCATS), 2010)
